Measurements as given in PubChem BioAssay AID1362 (SRMLSC, 2008).
This is one part of the list. Shown are side measurements of this screen, not its main read-out; they come without a call. Compounds called inactive in the main read-out are mostly missing here.

assay: growth inhibition of WT strain, primary screen, mitochondrial fusion inhibitor project, WT and mutant strains, chemical genetic (AID 1362); details: mitochondrial fusion phenotypic screen, at 10 µM; further: tested in S. cerevisiae

SMILES	inhibition [%]
CCOC(=O)C1=NN(c2ccccc2)C2=NC(C)=C(C(=O)OC)C(c3ccc(C)cc3)N12 (stereo unspecified)	4.52
CCOc1cccc(-c2cc(-c3n[nH]c(=S)n3CC)c3ccccc3n2)c1	39
CC(C)=CCc1c(O)ccc(C(=O)Cc2ccccc2)c1O	34.9
Oc1cccc2c(NC(=S)Nc3ccc(SC(F)F)cc3)cccc12	49.7
c1ccc(-c2oc3ncnc(NCCCn4ccnc4)c3c2-c2ccccc2)cc1	24.8
CCOC(=O)C1=C(c2ccccc2)N=C2SCC(=O)N2C1c1ccc2c(c1)OCO2 (stereo unspecified)	25
Cc1ccc(C)c(NC(=S)Nc2ncccc2C)c1	55
O=C(c1cnc(-c2ccccc2)s1)c1ccc(Cl)cc1Cl	34.2
COC(=O)c1ccccc1NC1=C/C(=N\S(=O)(=O)c2cccs2)c2ccccc2C1=O	37.2
COC(=O)c1c(NC(=O)c2c(-c3ccccc3Cl)noc2C)sc2c1CCC2	32.1
CN(C1=C(N2CCCCC2)C(=O)c2ccccc2C1=O)c1ccccc1	36.3
CC(C)(C)c1nc(NC(=O)Nc2ccccc2)sc1Br	29.2
Cc1sc2nc(CN(Cc3cccs3)C(=O)NC3CCCCC3)[nH]c(=O)c2c1C	14.1
CN1CC(c2ccccc2Cl)C2(COc3ccccc3C2=O)C12C(=O)Nc1ccccc12 (stereo unspecified)	11.9
CSc1ccc(CN(C)CC(=O)Nc2ccc(C)cc2Br)cc1	22.4
Cn1c(=O)n(C)c2cc([N+](=O)[O-])c(N3CCN(S(=O)(=O)c4ccc(C(C)(C)C)cc4)CC3)cc21	-3.08
Cc1cccc(C)c1NC(=S)NC(C)CCc1ccccc1 (stereo unspecified)	62.1
S=C(NCc1ccc(Cl)cc1Cl)NC1CCCCC1	72.7
Cc1cccc(NC(=S)N/N=C/c2ccc3c(c2)OCO3)c1	-0.1
FC(F)(F)c1nc(N2CCCC2)ncc1-c1nnnn1-c1ccccc1	20.9
COc1cc2c(C(=O)N3CCOCC3)c(CSc3ccccc3)n(C)c2cc1Br	20.6
CN=c1scc(-c2ccccc2F)n1/N=C(\C)c1cccnc1	66.9

SMILES	inhibition [%]
O=C(COc1ccc(Cl)cc1Cl)N1CCCN(C(=O)COc2ccc(Cl)cc2Cl)CC1	55.4
COc1ccccc1-c1c(C)nn2c(N3CCN(Cc4ccccc4)CC3)cc(C)nc12	50.1
CCC1Oc2ccc(C)cc2N(CC(=O)NCCCN2CCCCC2CC)C1=O (stereo unspecified)	19.5
C/C(=N\N=C(/N)SC1CC(=O)N(c2ccc(Cl)cc2)C1=O)c1cccs1 (stereo unspecified)	45.7
CC12CCC(c3c(C(=O)Nc4nccs4)nn(-c4ccccc4)c31)C2(C)C (stereo unspecified)	28.6
Cc1[nH]n(C(N)=S)c(=O)c1N=Nc1ccc(S(=O)(=O)N2CCCCCC2)cc1	34.1
O=C(Nc1ccc2c(c1)OCO2)c1ccccc1SCC(=O)N1CCCC1	-11.8
CCCOc1ccc(-c2nc(C#N)c(N3CCC(C(N)=O)CC3)o2)cc1	-12.2
CCC(C)c1ccc(NC(=O)COc2c(F)c(F)c(C(F)(F)F)c(F)c2F)cc1 (stereo unspecified)	-11.8
COc1ccc(C(=O)NN(C)c2nc(-c3ccccc3)nnc2C(F)(F)F)cc1	7.72
c1ccc(-c2noc(CN3CCN(C(c4ccccc4)c4ccccc4)CC3)n2)cc1	62.3
O=C(Nc1nnc(-c2ccco2)o1)c1ccc(Cl)cc1	64.8
CCCSc1nc(-n2ncc(C#N)c2N)c2c3c(sc2n1)CCC(C)C3 (stereo unspecified)	21.8
S=C1NC2(CCCCC2)Cc2ccccc21	50.3
COc1ccccc1N(CC(O)COc1c(C)cc(C)cc1C)S(=O)(=O)c1ccccc1 (stereo unspecified)	4.17
CN1CCN(CCCNC(=O)c2ccc(/C=C3/Sc4ccccc4N(Cc4cccc(Cl)c4)C3=O)cc2)CC1	22.7
CCOC(=O)NC(c1ccc(C(C)C)cc1)C(Cl)(Cl)Cl (stereo unspecified)	42.6
COc1ccc(CCNS(=O)(=O)c2ccc(OC)cc2)cc1	14.6
CN(C)S(=O)(=O)c1cccc(-n2sc3ccccc3c2=O)c1	43.5
COc1cc(NC(=O)c2ccc([N+](=O)[O-])o2)ccc1NC(=O)c1cccs1	91.1
COC(=O)c1c(NC(=O)CN2CCC3(O)CCCCC3C2c2ccc(OC)cc2OC)sc(C)c1C (stereo unspecified)	4.15
Cc1cccc(NC(=O)C2C(c3ccccc3)C2(Cl)Cl)c1 (stereo unspecified)	32.5

SMILES	inhibition [%]
CCC(c1nnnn1C(C)(C)C)N1CCN(c2cc(Cl)ccc2C)CC1 (stereo unspecified)	41.1
COc1ccc(C(CCNC(C)c2ccccc2)c2ccc(F)cc2)cc1 (stereo unspecified)	18.4
O=C(O)c1ccc(NC(=S)NC(=O)c2cccc(COc3ccccc3)c2)cc1	70.9
Cc1cc(-c2ccccc2)nc2cc(C(=O)N(Cc3ccccc3)Cc3ccccc3)nn12	7.32
COc1ccc(CNCc2cn(-c3cccc(F)c3)nc2-c2ccc(C)o2)cc1	45.1
O=C(NC(=S)Nc1ccc(S(=O)(=O)NC2CCCCC2)cc1)c1cccs1	3.11
CCOC(=O)c1c(C)[nH]c(C2=NNC(=Nc3cccc(Cl)c3)SC2)c1C	35.2
COc1ccc(C(=O)/C=C/C(=O)N(CC(=O)NC2CCCCC2)Cc2cccs2)c(O)c1	17.2
CCCC[C@@H]1C[C@H]1[C@@H](NC(=O)c1cccs1)c1ccc(Cl)cc1	3.03
NS(=O)(=O)c1ccc(N2N=C(c3ccccc3)CC2c2cccc(F)c2)cc1 (stereo unspecified)	62
S=C(NCc1ccco1)Nc1ccc(Oc2ccccc2)cc1	31.3
CCCc1cc(-c2nc(-c3ccc(Cl)cc3)cs2)ccn1	55.1
c1ccc2c(c1)ncn2CCCCOc1ccc2c(c1)CCC2	66.4
CC(C)c1ccc(NC(=O)c2cc(S(=O)(=O)NCC3COc4ccccc4O3)ccc2F)cc1 (stereo unspecified)	28.8
Cc1c(Cl)ccc2c(C(=O)NCCN3CCCCC3)cc(-c3ccccn3)nc12	93.3
N#CC(c1ccc(Cl)cc1)(c1ncc(C(F)(F)F)cc1Cl)N1CCOCC1 (stereo unspecified)	13.8
Cc1cc(-c2sccc2C)nc(-n2cccc2)n1	-55.4
C=CCn1c(COc2ccccc2-c2ccccc2)nnc1SCC(=O)NC(=O)NCc1ccco1	6.6
COc1ccc(NC(=O)c2oc3ccccc3c2NC(=O)COc2ccccc2OC)c(OC)c1	-8.04
CCc1ccccc1NCC(=O)Nc1ccc(Cl)c(C(F)(F)F)c1	78.5
O=C(Nc1nc2ccccc2n1CCOc1ccc(Cl)cc1)c1ccco1	36.4
Cc1ccc(C(=O)N2c3ccccc3N(Cc3ccccc3)C(=O)C2(C)C)cc1	56.2

SMILES	inhibition [%]
CN(C)/C=C(/C#N)C(=O)c1cccc(Oc2ccc(C(C)(C)C)cc2)c1	29.2
Cc1cc(C)n(CC(O)CN2c3ccccc3Sc3ccccc32)n1 (stereo unspecified)	45.9
CCCCCCCOC(=O)c1nc(Cl)c(Cl)c(N)c1Cl	24.7
CC1=NOC(=O)/C1=C\c1ccc(-c2ccccc2Br)o1	70.2
Cc1ccc(NC(=S)Nc2cccc3cnccc23)cc1C	50.2
O=C(CCc1nc(-c2ccccc2)no1)NCCc1ccccc1	-2.54
CNC(=O)c1ccsc1NC(=O)c1ccc2c(c1)CCCC2	57.8
CCCCc1ccc(NC(=S)N2CCCC(C)C2)cc1 (stereo unspecified)	64
CCCc1ccc(-c2cc(C(=O)NC3=NCCS3)c3ccccc3n2)cc1	75.6
COc1cc(-c2nnc(SCc3c(F)cccc3Cl)o2)cc(OC)c1OC	16.9
C=CCSc1nnc(-c2cc3c(s2)-c2ccccc2CC3)o1	45
O=C1c2cccc3cccc(c23)C(=O)N1CCCN1CCN(c2ccc(F)cc2)CC1	40.9
c1cncc(-c2nc(NCC3COc4ccccc4O3)c3ccccc3n2)c1 (stereo unspecified)	43.7
CCCN1C(=O)/C(=C\C=C2/C=CN(CC)c3ccccc32)SC1=S	46.5
Cc1ccc(NS(=O)(=O)c2ccc(C3CCCCC3)cc2)cc1	31.6
CCCN(CCC)C(=O)CC(c1ccccc1)c1cc(Br)ccc1O (stereo unspecified)	22.2
O=C1CSC(c2ccccc2Br)N1c1ccc(Cl)cn1 (stereo unspecified)	34.9
O=C(Nc1ccc(Cl)c([N+](=O)[O-])c1)C(Sc1ccccc1)c1ccccc1 (stereo unspecified)	72.7
O=C(Nc1ccc(Cl)cc1)c1ccc2c(c1)OCO2	8.92
O=C1S/C(=C\c2ccc(O)c([N+](=O)[O-])c2)C(=O)N1c1ccccc1Cl	54.3
Cc1ccc(CNc2nc(-c3cccs3)nc3ccccc23)cc1	35.8
Cc1nc(N2N=C3/C(=C/c4ccc(F)cc4)CCCC3C2c2ccc(F)cc2)sc1C(=O)N(C)C (stereo unspecified)	43.4

SMILES	inhibition [%]
O=C(CCc1ccccc1)NC(=S)Nc1cccc(Br)c1	0.62
N/C(Cc1ccccc1)=N\OC(=O)c1cccc2ccccc12	21.3
NC(=S)N/N=C\c1c(OCc2ccccc2Cl)ccc2ccccc12	55.3
Cc1cc(Cl)ccc1OC(C)C(=O)N1CCCN(C(=O)C(C)Oc2ccc(Cl)cc2C)CC1 (stereo unspecified)	25.3
CC(CCc1ccco1)NC(=O)c1cccc2c1C(=O)N(C1CCCCC1)C2 (stereo unspecified)	38.8
O=C(Nc1ccccc1)OC1CC2CC1C1CCCC21 (stereo unspecified)	38.8
CCOc1cc(CNCCO)cc(Br)c1OCc1ccccc1Cl	96.7
COc1ccc(C2CC(c3ccc(Br)cc3)=NN2C(=O)c2cccnc2)cc1 (stereo unspecified)	-2.85
COc1ccc2cc(/C=C3\SC(=S)NC3=O)c(N3CCOCC3)nc2c1	24.2
COc1ccc(NC(=S)N(CCc2c(C)[nH]c3ccc(C)cc23)Cc2ccco2)cc1	9
COc1cccc(N2CCN(CC(=O)Nc3ccc(SC(F)F)cc3)CC2)c1	20.1
N#Cc1c(N)nc2c(c1-c1ccc3c(c1)OCO3)CCc1ccccc1-2	34.4
COc1cc(CNn2cn[nH]c2=S)cc(Cl)c1OCc1ccc(F)cc1	8.54
S=C(NCc1cccc(Cl)c1)NC1CCCCC1	49.5
FC(F)Sc1ccc(NC(=S)NCc2ccccc2)cc1	31.7
COc1ccc(CNC(=S)NC(C)CCc2ccccc2)cc1 (stereo unspecified)	66.2
CC(C)c1ccc(-c2cc(C(=O)N3N=C(C(F)F)CC3(O)C(F)F)c3ccccc3n2)cc1 (stereo unspecified)	77.7
CCc1c(C)nc(SCC(=O)c2cccs2)c(C#N)c1C	62.8
